Test results published in the supplement of paper PMC3334620.
The full ranking holds about 33,000 sequences; the median of “E-score (-0.5 to 0.5)” is about -0.016, and the highest 2% start at about 0.32. This is one part of the list.

molecular target: T1, Stp1 (UniProt B3LFK1); test: PBM E-score (8-mer binding enrichment) (E-score (-0.5 to 0.5)); higher = stronger / more preferred TF binding; most listed sequences are background and not binding sites; conditions: protein concentration: 200 nM; construct: GST-full length
T1 sequence: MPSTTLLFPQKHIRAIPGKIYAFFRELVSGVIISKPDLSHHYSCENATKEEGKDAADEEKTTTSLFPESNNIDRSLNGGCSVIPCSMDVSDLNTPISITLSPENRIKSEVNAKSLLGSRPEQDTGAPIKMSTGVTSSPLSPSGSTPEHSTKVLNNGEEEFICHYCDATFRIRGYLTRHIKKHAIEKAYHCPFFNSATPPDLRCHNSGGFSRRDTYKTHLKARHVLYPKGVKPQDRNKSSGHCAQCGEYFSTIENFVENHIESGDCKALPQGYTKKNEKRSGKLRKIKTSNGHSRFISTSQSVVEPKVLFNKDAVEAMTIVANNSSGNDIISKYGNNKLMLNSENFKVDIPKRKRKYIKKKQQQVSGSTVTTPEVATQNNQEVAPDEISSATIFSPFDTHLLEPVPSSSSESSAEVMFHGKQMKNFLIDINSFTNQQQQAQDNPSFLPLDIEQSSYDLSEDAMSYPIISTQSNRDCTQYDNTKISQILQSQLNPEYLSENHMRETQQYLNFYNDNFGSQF
In short: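 Bound GST-tagged yeast transcription factors, applied at about 100-200 nM to double-stranded universal all-10-mer Agilent arrays, were detected with fluorescent anti-GST. Scans were normalised with masliner. A modified Wilcoxon-Mann-Whitney statistic, the E-score, was assigned to each ungapped eight-base word pooled with its reverse complement by the Universal PBM Analysis Suite.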

Sequence | PBM E-score
AAAAACAA | 0.109
CGTCCTCA | 0.0374
GGCTGAGA | -0.0639
AGCTGGGG | -0.258
CAGCCCCC | -0.326
CTGGGAGA | -0.226
ACGAATTC | 0.0899
CGCACCAA | 0.213
GGGATCGA | -0.0166
ACCGTACC | -0.0289
GTACCGAA | -0.0115
CACGGCTG | 0.363
GTCCATCA | -0.198
AGGTCCCG | -0.146
GTAAGGCA | 0.306
ATATGGAG | 0.258
GATCCCGA | -0.101
CCCCCGGC | -0.376
ATCCGTAC | 0.28
ACATGCAA | 0.0556
CCTCGCGA | 0.152
AGGCGGTC | -0.102

Sequence | PBM E-score
ACAAGTGG | 0.00648
CGATGAAC | -0.157
GGCCCACA | -0.0997
GGACCACC | -0.29
CCTGTTTA | 0.0663
CACGTGGC | 0.213
CGAGTAAG | 0.122
GACAATCA | -0.0163
CTTAAACC | -0.224
GAGGAGGC | 0.00167
AACACGGT | -0.0276
CTGAAACA | 0.0582
ATGGTAGA | 0.0876
AGTATTTA | 0.112
AGCTAGCT | -0.121
GCGATGAA | 0.0727
CTTCAAAC | 0.0173
AGCTAGTA | -0.079
AGGATACG | 0.148
AGAAATAC | 0.0854
CTAACGGA | 0.0439
GGAACATA | -0.0615

Sequence | PBM E-score
AACAAATT | 0.232
CTTTCTTC | -0.0626
CGATGTAG | -0.0761
GAATGAGA | -0.0008
AGCATGGG | -0.254
GAAAAGTA | 0.151
AAGTTTCC | 0.151
TTGCGAAA | 0.233
GGAGTGCA | -0.0113
AAGCAAGC | -0.0899
GTAAATAC | 0.0373
AGTGAGCG | -0.0787
AATGTGCA | 0.0581
GCCTGCAA | -0.134
AGTGTAGC | 0.0315
CGCTACTC | -0.109
ACTTCGAT | 0.125
AAGGGGTG | -0.18
CTAGAGGA | -0.197
GTAGTCAC | -0.127
AGAGCTAG | -0.129
ATACGATC | 0.0718

Sequence | PBM E-score
CCGTTCCC | 0.181
GAGCAGCA | 0.00186
ACAGCAAT | 0.178
AAAGAATC | 0.0141
GATCTGCC | -0.143
ACCGCCGT | 0.449
GCGTAGCA | -0.0278
TAACCCTA | -0.181
GACCGGGC | -0.267
CGAGACTC | -0.304
GAGGTCGC | -0.179
CTAAGTAG | 0.0172
AGAATACC | 0.08
AGTACCGG | -0.231
AGTGGCCA | -0.163
CATGCATG | 0.0957
AACTCATT | -0.242
TAGTTTAA | 0.0359
ATTATGTC | 0.0735
GGGCAGGA | -0.17
